{"source": "PubChem BioAssay (NCI)", "test_in_all_cases": "NCI anticancer screen, dose series, 48 h", "key": {"SN12C renal": {"test_system": "SN12C renal"}, "HCT-15 colon": {"test_system": "HCT-15 colon"}, "PC-3 prostate": {"test_system": "PC-3 prostate"}, "SK-MEL-2 melanoma": {"test_system": "SK-MEL-2 melanoma"}, "SF-295 CNS": {"test_system": "SF-295 CNS"}, "MALME-3M melanoma": {"test_system": "MALME-3M melanoma"}, "MDA-MB-231 breast": {"test_system": "MDA-MB-231 breast"}, "HOP-62 NSCLC": {"test_system": "HOP-62 NSCLC"}, "CCRF-CEM leukemia": {"test_system": "CCRF-CEM leukemia"}, "UO-31 renal": {"test_system": "UO-31 renal"}, "A498 renal": {"test_system": "A498 renal"}, "COLO 205 colon": {"test_system": "COLO 205 colon"}, "RPMI-8226 leukemia": {"test_system": "RPMI-8226 leukemia"}, "T-47D breast": {"test_system": "T-47D breast"}, "DU-145 prostate": {"test_system": "DU-145 prostate"}, "HCT-116 colon": {"test_system": "HCT-116 colon"}, "NCI-H460 lung": {"test_system": "NCI-H460 lung"}, "MCF7 breast": {"test_system": "MCF7 breast"}}, "note": "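Compound exposure: 48 hours, 5 concentrations, 96-well plates. GI50 marks 50% less growth.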 Not every entry of the source has a single result; some have several. They are shown here; other results are not. There may be further records. For part of these data: Values given together are repeated measurements (runs, samples, wells, individuals or studies). Records carry a tag for their origin. A, B and so on number the origins entry by entry.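 At the TGI there is no net growth.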 For part of these data: The tests behind the records often covered other concentration ranges, which the source does not state; a value can be the end of its range. *1 amine or outer side, *2 acyl side, *3 side chain or, on linkers, in order; H or OH if unused. Where a SMILES comes first, the peptide text is derived from it. Bridges are numbered along the chain shown (N, C = ends). [ ]: non-standard residue; d: D form. ξ: configuration not given here. X4 = CCC(C)C(N[*:1])C(O)CC(=O)O[C@H](C(=O)C(C)C(=O)[*:2])C(C)C; NMeY = CN[C@@H](Cc1ccc(O)cc1)C(=O)O; ξNMeL = CNC(CC(C)C)C(=O)O; ξT = CC(O)C(N)C(=O)O"}
{"compound": "CSC1SCC2C(=O)N(C)C3(CC3C)C(=O)OCC(NC(=O)c3nc4ccccc4cc3O)C(=O)NC(C)C(=O)N(C)C1C(=O)N(C)C1(CC1C)C(=O)OCC(NC(=O)c1nc3ccccc3cc1O)C(=O)NC(C)C(=O)N2C", "note": "(stereo unspecified)", "values": [{"measurement": "TGI", "setting": "SN12C renal", "result": "< 0.1 nM and > 100 µM"}, {"measurement": "TGI", "setting": "HCT-15 colon", "result": "353 nM and > 100 µM"}, {"measurement": "TGI", "setting": "PC-3 prostate", "result": "0.226 nM and 28.2 nM"}, {"measurement": "TGI", "setting": "SK-MEL-2 melanoma", "result": "< 0.1 nM and 266 nM"}, {"measurement": "TGI", "setting": "SF-295 CNS", "result": "< 0.1 nM and 339 nM"}, {"measurement": "TGI", "setting": "MALME-3M melanoma", "result": "< 0.1 nM and 298 nM"}, {"measurement": "TGI", "setting": "MDA-MB-231 breast", "result": "0.143 nM and 13.1 µM"}, {"measurement": "TGI", "setting": "HOP-62 NSCLC", "result": "< 0.1 nM and 31 nM"}]}
{"compound": "CC(=O)OCC1OC(n2c(-c3ccccc3)cc(-c3ccco3)c(C#N)c2=O)C(OC(C)=O)C(OC(C)=O)C1OC(C)=O", "note": "(stereo unspecified)", "values": [{"measurement": "GI50", "setting": "CCRF-CEM leukemia", "result": "> 100 µM [sample A, 1 test] and 6.16 µM [sample B, 1 test]"}]}
{"compound": "O=c1ccn(C2OC(CO)C(O)C2O)c(=O)[nH]1", "note": "(stereo unspecified)", "values": [{"measurement": "GI50", "setting": "UO-31 renal", "result": "165 nM [sample A, 1 test] and 906 µM [sample B, 1 test]"}, {"measurement": "TGI", "setting": "UO-31 renal", "result": "8.91 µM [sample A, 1 test] and > 1 mM [sample B, 1 test]"}, {"measurement": "GI50", "setting": "A498 renal", "result": "1.7 µM [sample A, 1 test] and > 1 mM [sample B, 1 test]"}]}
{"compound": "CCC(C)C1NC(=O)C(NC(=O)C(CC(C)C)N(C)C(=O)[C@@H]2CCCN2)C(C)OC(=O)[C@H](Cc2ccc(OC)cc2)N(C)C(=O)[C@@H]2CCCN2C(=O)[C@H](CC(C)C)NC(=O)C(C)C(=O)[C@H](C(C)C)OC(=O)CC1O", "note": "(stereo partly specified) (H-P[ξNMeL][ξT][X4]LP[NMeY](Me); ester 3-C)", "values": [{"measurement": "TGI", "setting": "COLO 205 colon", "result": "1.32 nM and 12.5 µM"}, {"measurement": "TGI", "setting": "SN12C renal", "result": "4.37 nM and 10.1 µM"}, {"measurement": "TGI", "setting": "RPMI-8226 leukemia", "result": "8.35 nM and 212 nM"}, {"measurement": "TGI", "setting": "T-47D breast", "result": "4.18 nM and 1.23 µM"}, {"measurement": "TGI", "setting": "DU-145 prostate", "result": "14.7 nM and 857 nM"}, {"measurement": "TGI", "setting": "HCT-116 colon", "result": "2.48 nM and 11.8 µM"}, {"measurement": "TGI", "setting": "NCI-H460 lung", "result": "3.26 nM and 154 nM"}, {"measurement": "TGI", "setting": "MDA-MB-231 breast", "result": "15.6 nM and 254 nM"}, {"measurement": "TGI", "setting": "MCF7 breast", "result": "9.84 nM and 10.2 µM"}]}
